Laboratory results from the RNAGym collection of RNA variant scans (doi:10.7554/elife.90254).
Read counts are not given, so values of variants with three or more changes are uncertain.

B1: LINE1-mini (parent)
chain: GGCAGAGCUCAACACAGCGUGGCAAAGUGGCUGUGGCUAGACUGCC

Variants of: B1
Experiment: self-cleavage, relative activity (ratio to wild type); higher = more cleavage; in vitro, sequencing; the parent is a self-cleaving ribozyme

Variant	self-cleavage
A6G C10U G40A	0.01
A6C U28G U32C C37U	0.01
A6G A24G C31A G44A C46A	0.03
A6G A41U G44A C45G	0.03
A6G G7C C37G A39G	0
A6C U38A G44A	0.08
A6G C15U G22C G40A	0.03
A6G G19C A39G	0
A6G C10A C15U G21U C37U	0
A6G C10U G21U	0.05
A6G C8U A41C C46A	0.11
A6G A12C G21A A24C C42G	0.01
A6C G35A C45U	0.14
A6G C10A U34C C42G	0.04
A6G G17A G21A G27U C31U	0.1
A6C G33C C37U	0.04
A6C G40A G44A C46A	0.01
A6G A16U G27U	0.02
A6G A26C C31U	0
A6C U34A A39U	0.06
A6C U9G G22C	0.02
A6C U9A G17U G22C C31G G40C	0.02
A6G C10A A11G	0.02
A6G G17C A26G G40A	0

Variant	self-cleavage
A6G C8A G27C G30U	0.03
A6G A26G G44U	0.02
A6G A11G G30C C42G	0.02
A6G G19A G27U	0.09
A6G C10G C18G U28A	0.01
A6G C15U A24C G29C U38G	0.02
A6G G17A U43C	0.03
A6G A12U G21U	0.05
A6G C13A C45A	0.12
A6G C10A G17C G35A	0.01
A6G C8U C10A C15G C23A	0.01
A6G C31A U32A G35C	0.07
A6G C23G U43C	0.02
A6G C23U G27A	0.13
A6C U9C G21U	0.02
A6G G22A C23U A24U G40C	0.25
A6G G7U A11G G17C	0.01
A6G G7U C8A	0.13
A6C U20C G27U U38A	0.04
A6G A39G U43C C45G	0.02
A6G C23U G44C	0.04
A6G G7A A11G C13A G21U	0.01
A6G C10A C15A G36A C46A	0.01
A6G C15U C18A	0.08

Variant	self-cleavage
A6G C10A G22A C31A	0.02
A6G A11U C23G	0.03
A6C G35A C42G	0.04
A6G C42G C46G	0.01
A6G G7U A12C A24G G36U	0
A6G C8A C45U	1.02
A6G G19A A39C	0.06
A6C G40C C45U	0.13
A6G C18G U34C	0.05
A6C U20G C31U	0.04
A6G A25C G40U	0.08
A6C G30U A41C	0.04
A6G G19C G21U U38G	0.01
A6G C15U A16U G29U G40U	0.02
A6G A14G C23A	0.01
A6G G19A A26C C42U	0.02
A6G C10A A14G A24G C46A	0.02
A6G C31G G35U	0.03
A6G C31G G35C	0.04
A6G C8G C13G	0.1
A6C U20A G27A U38A	0.13
A6G C18A C31U G44U	0.08
A6G G7U A11G U20C A25C G27U	0.01
A6G G22A A26C	0.01

Variant	self-cleavage
A6G C10A A14U	0.02
A6G C13A C31A C42U	0
A6G C8A A26C A39C G40U	0.02
A6G A12U G40A	0.07
A6C G36A A41G	0.78
A6G A16U G21A A25C U32G G33A	0.02
A6G A11G A24G U38C	0.01
A6C U20C G44A	0.05
A6G A12U U28G C37U A39C	0.02
A6G G7C G30A G40A	0.04
A6G A24U A39G	0.03
A6G G19C C23U A26U G40A	0.02
A6C U20C A26G G27C	0.41
A6G A12U A14U A16G C45A	0
A6G A11U G17U C18G U20A A26C G33C U34G	0.01
A6G A14U C46G	0.1
A6C U38G A41U	0.03
A6G A11U G30U C31U	0.04
A6G A16U C42U	0.09
A6G G17A G40A	0.06
A6G C8A G29A	0.08
A6G G19A G35C	0.01
A6G A24U A26U G40C	0.01
A6G C10A A25C G44A	0.03

Variant	self-cleavage
A6G C10A A14C G21C	0.01
A6G A24U U43A	0.05
A6C U9A G33U	0.04
A6C U20C U38G	0.02
A6G A16C G22A	0.04
A6G A11G U20G C42G	0.01
A6G C15U G17C A39C	0.03
A6G C18G G33A G35A	0.04
A6G G7A U34G	0.03
A6G G19C C23A	0.04
A6G G19C C23U	0.02
A6C U9A G22A	0.15
A6G A25U G27U U38G A41G G44U	0
A6G G17U G35U C37A	0
A6G A12G G44A	0.04
A6G G19C U28A A41U G44A	0
A6G C31U C37G A39U	0.01
A6G G21C C23U G40U G44C	0.02
A6G A11U A24U	0
A6G G7A G21U G35U G36A	0.39
A6C U28C U43A	0.1
A6C G33A C42A C45G	0.03
A6G G17U C18U A39C	0
A6G A14G G22C	0.08

Variant	self-cleavage
A6G C8A U38C	0.04
A6C U9A A14U C42A	0.16
A6G C10A U20C G21A G27U U28G U32C G33A G36A	0.01
A6G A11G G19A C46A	0.01
A6G G21A A24U C37U C45A	0.07
A6C U28A C46G	0.24
A6G A11C G30U G40A C45U	0.01
A6G A12C G21U	0.03
A6G C8U A26G	0.67
A6C G29C C31U G35A	0
A6G C15U A26G G29A U32A U38A A39C	0.13
A6G C15G A26C	0
A6C U20G C45G	0.22
A6G A14C G29A C37A A39C	0.2
A6G A14U A41G C46A	0.06
A6G G7U G36U	0.05
A6G C23A G27A C37U C42G	0
A6G G7U U9A A39G	0.04
A6C U9C U32G G33U	0.02
A6G C10G A12U C23U G33A	0.02
A6G A11U C46A	0.06
A6G G19A G21A G29C	0.16
A6G C8U G17A U32A	0.04
A6G C10A U28G G35U	0.04

Variant	self-cleavage
A6G C23G C46A	0.05
A6G A11U C23U C31G G44A	0
A6G G7U C8A U9G C15A G27C	0.02
A6G C15U C23A	0.06
A6G C8U A11C G19A C23G G29U U38C	0
A6G G7A C13U G17C	0.14
A6G A16U G33U	0.04
A6G C13G G19C	0.02
A6G A16U A25C A26U G27C C37A	0.04
A6G G7C C15G G30A	0.03
A6G C10A G22U U38C G40A	0
A6G A24U G36U A41C	0.07
A6G G22A C31U U32A	0.05
A6C U28A G36U A41G	0.06
A6G A12G C13A G17U C18A	0.03
A6G A16U G21A C23U A26U	0.09
A6G G19C A24C C37U G44A	0.01
A6G C10A G21A	0.01
A6G A14G G29U	0.03
A6G C8U C10U U32C C37A	0.07
A6G A16C G35C	0.1
A6G G17U A41U C42U	0.02
A6G C8U G17U U34A A39C	0.14
